± gives the standard deviation of the averaged measurements. Some of the results follow.
test system: PfAP2-I AP2 domain 3 (GST-tagged); assay: gcPBM binding intensity (ln(normalized median fluorescence intensity)); higher = stronger DNA binding
Method in brief: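 GST-tagged P. falciparum DNA-binding domains produced in E. coli were incubated for 1 h on an Agilent 4 × 180k array of primer-extended double-stranded 36-bp intergenic genomic probes with negative controls. Binding intensity is the highest Masliner-normalised natural-log median intensity across replicate spots of either probe orientation, with bound protein detected by Alexa488 anti-GST antibody at 488 nm.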

| Sequence | gcPBM binding intensity (ln) |
| --- | --- |
| AAGAAATATTTATACACACACACAAACATATATATA [CACACA_site1912] | 8.28 ± 0.71 |
| ATATTATTGTAGAAATGTACATATATATATATATAT [XGTACX_site1882] | 9.31 ± 0.38 |
| TATATATGTTCAATATGTACATATATATAAGTGTAT [XGTACX_site5157] | 7.85 ± 0.51 |
| CTGTATTCATAATTCACACAAATGGTTTATATGAAT [CACACA_site4315] | 7.83 ± 0.47 |
| TATATATATATATACACACACACACCCATATATATA [CACACA_site2538] | 9.3 ± 0.49 |
| CATATTTGCACTTTCACACATAAATATATAACTATA [CACACA_site6016] | 11 ± 0.89 |
| CATACATACAGATATACACACATATATAATAATATA [CACACA_site5477] | 7.7 ± 0.38 |
| TTTTTATTTTTGTAGTGTACTTTATTTTTTTTGTTT [XGTACX_site8887] | 8.06 ± 0.4 |
| TTTAAACAAGGATCCACACACCCCAAAAAAAAAAGA [CACACA_site680] | 8.54 ± 0.057 |
| GTCTATTCAAAAAAGTGTACGGACATATAAACATAC [XGTACX_site6516] | 8.46 ± 0.19 |
| TTAGCTATGATATATACACACCAACGAACGAAGAAA [CACACA_site6657] | 8.03 ± 0.61 |
| TATGGTGTAATTTAGTGTATTATATTATTTTGGTTG [GTGCAC_negctrl_site445] | 7.99 ± 0.35 |
| TGCAGTCTGGAGAAAAGTACATAGTATCTGGTATCT [XGTACX_site2545] | 7.83 ± 0.68 |
| TTTTTTTTTTTTTTTGCACACAGGGTGTAGGACAAG [CACACA_site2842] | 9.54 ± 0.47 |
| ATATATATATTCCACACACACACAAAAAAAAAAAAA [CACACA_site3648] | 9.02 ± 0.28 |
| CATTTGATAAGATACACACACAAGGAAAAAAATAAA [CACACA_site350] | 7.91 ± 0.63 |
| TATAATAATATTAACACACGTACAAAAGCAAACAAC [CACACA_site3494] | 8.94 ± 0.35 |
| TTATAATATCTATATATCTTTTACATTTATAAGTTT [CACACA_negctrl_site1473] | 7.59 ± 0.47 |
| AAAAAAAAATAAATAAATATATATAATATTTATGTT [GTGCAC_negctrl_site520] | 7.34 ± 0.39 |
| AAAAAGAAAAAACTTACACACATATATACAGACATG [CACACA_site550] | 7.82 ± 0.59 |
| TTATAATCCATAATTGCACACAATATATTCATATTT [CACACA_site3916] | 8.79 ± 0.3 |
| AATATACAATAAAGGTGTACACATATATGATGCAAG [XGTACX_site7607] | 8.38 ± 0.45 |

| Sequence | gcPBM binding intensity (ln) |
| --- | --- |
| ATAAAATAAGATCTTTTTTTTTTTTTTTTCTTTTCT [XGTACX_negctrl_site73] | 7.26 ± 0.59 |
| AACAAATAAATAAATAAAAAGCAAATATGTCTATAT [GTGCAC_negctrl_site414] | 7.78 ± 0.82 |
| TGGTTAATATGTGAAAGTACATATTATATTAAAATG [XGTACX_site2636] | 7.78 ± 0.5 |
| TACAGATAATATATTGCACACGTCAGAATAATATAG [CACACA_site5036] | 9.95 ± 0.34 |
| TATAACTTTTTTATTACACACCTATGCAATATTATA [CACACA_site6570] | 8.82 ± 0.67 |
| TATATTTATTTATACACATGCATATTTTAAGGGCTC [TGCATGCA_site885] | 7.86 ± 0.54 |
| ATTTATTTATTTATTTGTACATATAAATATATCAAA [XGTACX_site7383] | 8.06 ± 0.82 |
| AAAGATGTTATATATATGTATATATATATGTAATAT [TGCATGCA_negctrl_site386] | 7.64 ± 0.41 |
| CATATAATTATATATCGTACATATTAATATAATTAC [XGTACX_site401] | 7.71 ± 0.42 |
| AGTATACAGATATATACACACATATATTTATTTATA [CACACA_site6279] | 7.56 ± 0.47 |
| AGATATAGGAAAATAATATATATATATTTTTTTTTT [CACACA_negctrl_site461] | 7.27 ± 0.44 |
| ATATATATATATATATGTACTTATAAGGTATATTTA [XGTACX_site3327] | 9.35 ± 0.52 |
| CCAACATTTTTTAGAAGTACATTTTTATATTTATTA [XGTACX_site5179] | 7.59 ± 0.24 |
| AAATAAAAACATAACAGTACAGTTAACATTTTTATA [XGTACX_site3479] | 7.41 ± 0.54 |
| TATATATATATATATGTACACACATATATACCTTTC [CACACA_site8854] | 9.57 ± 0.33 |
| TGTAATAATCTTACATGTACATACATATATTATATA [XGTACX_site4012] | 7.97 ± 0.23 |
| GATGGAAGGTGAAAGCGTACTTATTATAGTAATATA [XGTACX_site303] | 7.88 ± 0.87 |
| AGGTACTTTTTTAAAACACACATATAATATATACAC [CACACA_site1065] | 8.15 ± 0.49 |
| TACATTCATGTGTATTGTACAAACTATTTTATAATA [XGTACX_site7744] | 7.61 ± 0.49 |
| TACATATTTTTTATGTGTACATATTTTTTATGTGTA [XGTACX_site443] | 7.775 ± 0.049 |
| ACAATCCTAACGACATGTACAAATATATATATTTTT [XGTACX_site7335] | 7.85 ± 0.59 |
| TATATAATATATATAGTGCATAAGTTCAAAAGAATA [GTGCAC_site9805] | 9.95 ± 0.16 |

| Sequence | gcPBM binding intensity (ln) |
| --- | --- |
| GCATATTTTATAATTTTACACACCATATAAAATAAT [CACACA_site8904] | 8.3 ± 0.51 |
| AAACAAAGAAAGAACACACATACACAATATACCTAC [CACACA_site2835] | 8.03 ± 0.64 |
| ATATATGTGTATGTATGTACTCATTTTTGTATATAT [XGTACX_site490] | 7.83 ± 0.38 |
| TTATATATTTATATTTGTACGTATAAATTTTTTTTT [XGTACX_site2833] | 7.71 ± 0.15 |
| TATTTTGAAAAAGTTGCACACAAAATTTAAAAAAAA [CACACA_site8470] | 8.34 ± 0.26 |
| CATTTAAATTATAAGTGTACACGATCATATTTCATC [XGTACX_site349] | 8.05 ± 0.69 |
| ATAATGATATATTATAAACACACAAAGATGAATATA [CACACA_site8914] | 7.72 ± 0.52 |
| GTTATAGAAGCATTCACACACACACCCACATACACA [CACACA_site1465] | 8.535 ± 0.049 |
| TTACATAATATATGTACACACGCAAATACTTAGAAT [CACACA_site320] | 7.91 ± 0.55 |
| AAACGATTACTGTGTACACACATAGTTATAAACATA [CACACA_site5195] | 8.04 ± 0.42 |
| GAATGTTAACGTTGCACACAAAAAAAAAGTATACAT [CACACA_site2415] | 8.4 ± 0.43 |
| AGGATATGCAGACACACACACATATATATATATATA [CACACA_site2201] | 9.46 ± 0.4 |
| TTTTTTAATAATAGGAAAATGAATATTATATCGAAT [TGCATGCA_negctrl_site543] | 7.7 ± 0.54 |
| TTTTTTTTTTTTTCAAGTACATAACTTACCCCTTTT [XGTACX_site6207] | 8.12 ± 0.57 |
| TTATATGCATAAAAACGTACAAAAATGTATTCATGT [XGTACX_site2215] | 8.06 ± 0.52 |
| CCGTTGAACATATATGCACACACATAAAATAAAAAA [CACACA_site8761] | 9.48 ± 0.36 |
| ATATTTTTTTTTTTTTGTACATATATCATTATATAT [XGTACX_site866] | 7.84 ± 0.52 |
| TTTTTGTCTGCATACGCACACACGTGTACCATCTTA [CACACA_site1173] | 8.68 ± 0.63 |
| TGGTTACTGTCATTAGTTATTTCTTGTTGACAATTA [CACACA_negctrl_site416] | 7.57 ± 0.61 |
| AATATTTATATTTACACACACATAATACCTATATGT [CACACA_site6167] | 7.83 ± 0.42 |
| TAGATACATAAAAGTGGTACATATATATATATATAT [XGTACX_site6263] | 9.49 ± 0.3 |
| TGGAAATTCTCAGGAGTGCATATTTGCAGTTTACGT [GTGCAC_site9768] | 9.99 ± 0.33 |

| Sequence | gcPBM binding intensity (ln) |
| --- | --- |
| TTTGTTGACGGACACACACACATACAGATATATATA [CACACA_site5292] | 8.24 ± 0.38 |
| ATGGTTAAAAAAAGCATACACACTATCCTCTTTGCT [CACACA_site2552] | 7.75 ± 0.76 |
| ATAATAAATTATTATGTACACACATAATAGTATATA [CACACA_site8538] | 7.79 ± 0.16 |
| AAAATATATTCAACTTGTACATATATATATATATAT [XGTACX_site7629] | 9.51 ± 0.58 |
| TTTTTTTTTTGCACGTGTACATAAAAATATATATAT [XGTACX_site3116] | 9.935 ± 0.021 |
| TTTTTGTAATGACACACACACAAACAGAAAAAATAA [CACACA_site7062] | 8.02 ± 0.42 |
| TTATATATTTTGATTGCACACAGAATTTAAATCATG [CACACA_site8735] | 9.02 ± 0.38 |
| ATATATGTGCTAAAATGTACATAGTATAATATATTT [XGTACX_site1949] | 8.07 ± 0.48 |
| TTTAATCATTTTAGCTTACACACAAAATTTTGTTAT [CACACA_site2938] | 7.91 ± 0.68 |
| ATATTTAAGATTTAATCACACACATATATATTATAT [CACACA_site8946] | 7.7 ± 0.42 |
| ATAAAATAAAGGAAAAATATTAAGTTTTAAGAAAAT [CACACA_negctrl_site1066] | 7.6 ± 0.76 |
| TTCTCACTTTTAAATTTTATTCAAAAATAAGGAAAG [XGTACX_negctrl_site444] | 7.58 ± 0.36 |
| GAGAGTAAAACAAATATACACACCATAAAGTTATAA [CACACA_site1686] | 7.63 ± 0.5 |
| ATTTCGTTCTTTTATGCACACTCAACATATAAATTA [CACACA_site8322] | 10.4 ± 0.37 |
| ATATATATATATAAATGTACATATGTATAATTCATA [XGTACX_site6679] | 9.04 ± 0.28 |
| TACATAAACATTTATACACACATTATGTATACATAT [CACACA_site405] | 7.91 ± 0.33 |
| GGATTTTTCGAATCATGTACATATTTAATTAAAAAA [XGTACX_site7939] | 7.78 ± 0.47 |
| TATTTTTCCATATGCACACACACCGTATCTAGAATA [CACACA_site6654] | 9.31 ± 0.16 |
| AACTTTGGCAAACACACACACACACCCACACCCACA [CACACA_site588] | 8.21 ± 0.3 |
| TAGAATGTATGTAGTGCACACCTCTATAATATATTA [CACACA_site1873] | 11.3 ± 0.6 |
| ATAATAATAAAGTATGCATGCATATAATATAATATA [TGCATGCA_site796] | 7.97 ± 0.63 |
| TTTTTATTGCAATACTTATATTTTTTTATGATTAAA [TGCATGCA_negctrl_site147] | 9.03 ± 0.38 |

From the supplement of paper PMC11417369
